In the supplement of paper PMC12217912:
This is one part of the list. The full chains were built here from the parent and the listed change. Values near 0.05 are background.

B1: TEV protease; numbered along this chain (parent)
chain: MGESLFKGPRDYNPISSSICHLTNESDGHTTSLYGIGFGPFIITNKHLFRRNNGTLVVQSLHGVFKVKDTTTLQQHLVDGRDMIIIRMPKDFPPFPQKLKFREPQREERICLVTTNFQTKSMSSMVSDTSCTFPSGDGIFWKHWIQTKDGQCGSPLVSTRDGFIVGIHSASNFTNTNNYFTSVPKNFMELLTNQEAQQWVSGWRLNADSVLWGGHKVFMVKPEEPFQPVKEATQL

Variants of: B1
Assay: raw area under fraction-flipped curve 0-4 h after induction (AUC4h, not background-subtracted), DNA-recorder readout of cleavage of the substrate (dimensionless); higher = more cleavage of the substrate by the protease variant
Settings: temperature: 34 °C; time window: 0-4 h after rhamnose induction
Protocol: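 In vivo DNA recorder in E. coli TOP10(DE3) ΔrhaA at 34 °C. Each TEVp single-site mutant (parent TEVp 0) is paired with a single-site variant of the 7-mer TEVs (canonical ENLYFQ|S). The substrate sits between flexible linkers in a Bxb1-sfGFP-TEVs-SsrA fusion, so cleavage stabilises Bxb1 and speeds flipping of a recombination array, read by NGS. The value is the raw area under the fraction-flipped curve over 0-4 h after rhamnose induction (AUC4h), with ≥20 reads per time point. It is not background-subtracted; inactive controls average about 0.047.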
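Also: Bxb1 expression induced with 0.2% (w/v) L-rhamnose at OD600 near 0.5, cultures sampled hourly, flipped fraction per protease–substrate barcode pair counted by paired-end Illumina sequencing.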

Variant | area with substrate ENLYFQA | area with substrate ENLYFQC | area with substrate ENLYFQD | area with substrate ENLYFQE | area with substrate ENLYFQF | area with substrate ENLYFQG | area with substrate ENLYFQI | area with substrate ENLYFQK | area with substrate ENLYFQL | area with substrate ENLYFQQ | area with substrate ENLYFQR | area with substrate ENLYFQS | area with substrate ENLYFQT | area with substrate ENLYFQV | area with substrate ENLYFQW | area with substrate ENLYFQH | area with substrate ENLYFQM | area with substrate ENLYFQN | area with substrate ENLYFQY | area with substrate ENLYFQP
D91V | 0.0888 | 0.0936 | 0.0718 | 0.0174 | 0.0584 | 0.0655 | 0.0524 | 0.048 | 0.0417 | 0.0585 | 0.0679 | 0.0954 | 0.0519 | 0.0604 | 0.0476 | – | – | – | – | –
F92P | 0.0561 | 0.0603 | – | – | – | 0.0558 | 0.0453 | – | – | – | 0.055 | 0.0605 | 0.0518 | 0.0399 | 0.0686 | 0.0494 | 0.057 | 0.054 | 0.0454 | –
P93F | 0.0558 | – | 0.0781 | 0.0599 | – | – | 0.0516 | – | 0.0535 | – | – | 0.0807 | 0.0836 | – | – | – | 0.0984 | – | – | –
P93H | 0.0616 | 0.114 | – | – | – | 0.0952 | 0.0561 | 0.0388 | 0.0593 | 0.0687 | 0.0543 | 0.0974 | – | 0.0551 | – | – | – | 0.0696 | 0.0833 | –
P93Q | 0.0954 | – | 0.0527 | – | 0.072 | 0.11 | – | 0.063 | 0.0709 | – | 0.0607 | 0.102 | – | 0.0666 | 0.0645 | – | 0.0845 | 0.105 | – | –
P94M | 0.0788 | 0.134 | 0.077 | – | 0.0707 | 0.0996 | 0.0648 | – | 0.0704 | – | 0.0566 | 0.11 | – | – | 0.0562 | 0.0941 | 0.0962 | – | – | –
F95T | 0.0846 | 0.0752 | – | – | – | – | – | – | – | – | 0.0526 | 0.0809 | 0.0396 | – | – | – | 0.0562 | 0.0347 | – | –
Q97F | 0.0832 | 0.0723 | – | – | 0.0912 | 0.0922 | 0.0705 | – | – | – | 0.0631 | 0.0927 | 0.0351 | – | – | – | 0.0824 | – | 0.0637 | –
K98Y | 0.121 | 0.147 | 0.106 | – | 0.0875 | 0.106 | 0.0619 | 0.0583 | 0.0672 | 0.0721 | 0.0542 | 0.103 | 0.0595 | – | 0.0607 | 0.0795 | 0.114 | 0.0893 | – | –
K100M | 0.151 | 0.127 | – | – | – | 0.0899 | – | 0.0526 | – | – | – | 0.111 | – | – | – | – | – | – | – | 0.0428
F101T | 0.0552 | 0.0776 | – | – | – | – | 0.0394 | 0.0874 | 0.0503 | – | 0.0376 | 0.0579 | 0.0507 | 0.0604 | – | 0.0544 | 0.0522 | 0.0442 | – | –
R102K | 0.104 | 0.134 | – | 0.0306 | – | – | 0.0632 | 0.0902 | 0.0623 | 0.0812 | 0.0491 | 0.113 | 0.0652 | – | 0.0639 | – | 0.085 | – | 0.073 | 0.0662
P104E | 0.0525 | 0.0508 | 0.0574 | 0.0427 | – | 0.043 | 0.0428 | 0.0473 | 0.0534 | – | 0.0704 | 0.0521 | – | – | 0.0421 | 0.0524 | – | 0.0483 | – | 0.0605
Q105H | 0.0834 | 0.132 | 0.066 | – | – | 0.0898 | 0.171 | 0.0617 | 0.0602 | – | 0.0745 | 0.107 | – | 0.0624 | 0.0686 | – | 0.102 | 0.0518 | 0.0913 | –
E107C | 0.0959 | – | – | – | – | – | – | – | 0.0536 | – | – | 0.098 | 0.0529 | 0.057 | – | – | – | 0.0948 | – | –
E108H | 0.07 | 0.077 | 0.0629 | – | – | 0.0717 | 0.0651 | 0.0456 | 0.0499 | 0.0662 | 0.0565 | 0.0681 | 0.0555 | – | 0.0694 | – | 0.0622 | 0.0542 | – | –
R109F | 0.107 | 0.124 | 0.082 | – | 0.0635 | 0.0897 | – | – | 0.0561 | – | – | 0.099 | 0.0673 | 0.0461 | – | – | 0.0884 | 0.0638 | 0.0675 | –
I110C | 0.0927 | 0.131 | 0.0731 | – | 0.079 | 0.115 | 0.0626 | 0.0687 | 0.0588 | – | 0.0618 | 0.107 | 0.0642 | – | 0.085 | 0.0835 | 0.0463 | 0.0638 | 0.0894 | –
I110P | 0.0685 | 0.0578 | – | – | – | – | – | – | – | 0.0608 | 0.0591 | 0.057 | – | – | 0.0604 | 0.0808 | 0.0541 | – | 0.0909 | –
C111F | 0.124 | – | 0.081 | – | – | 0.0945 | 0.0448 | 0.0668 | 0.0414 | – | 0.0637 | 0.108 | 0.0724 | – | 0.0545 | 0.0912 | 0.108 | 0.0883 | 0.0712 | –
C111V | 0.11 | 0.0294 | 0.0857 | – | – | 0.072 | 0.0538 | 0.0576 | 0.0623 | 0.0711 | 0.0649 | 0.106 | 0.0641 | 0.067 | 0.0796 | – | 0.0867 | 0.0601 | 0.0879 | 0.0608
L112P | 0.0529 | 0.0561 | – | – | 0.0089 | 0.0604 | 0.0535 | 0.0536 | – | – | 0.0485 | 0.053 | 0.0515 | 0.0501 | 0.0537 | – | 0.0536 | 0.0477 | – | 0.0532
T115D | 0.0281 | – | – | – | 0.0941 | – | – | – | 0.0619 | – | 0.0814 | 0.0967 | 0.0632 | – | – | – | – | 0.0798 | – | –
T115P | 0.0978 | – | – | – | – | 0.0828 | – | 0.0577 | – | – | 0.0679 | 0.109 | – | 0.0593 | 0.075 | – | – | 0.11 | 0.0815 | 0.0691
N116R | 0.118 | – | 0.0904 | – | 0.0975 | 0.0739 | – | 0.0644 | – | – | 0.0622 | 0.11 | 0.075 | 0.0672 | 0.0786 | 0.0775 | 0.0819 | – | – | –
F117W | 0.0906 | 0.0665 | 0.0662 | – | – | 0.107 | 0.0331 | 0.0646 | – | – | – | 0.107 | 0.0801 | – | 0.0642 | – | – | – | – | 0.0695
K120R | 0.126 | 0.117 | 0.0719 | – | – | 0.109 | 0.061 | 0.0576 | 0.0655 | – | 0.0538 | 0.108 | 0.0788 | 0.0419 | 0.0721 | 0.0888 | 0.103 | 0.0759 | 0.0666 | 0.0637
S121C | 0.104 | 0.132 | 0.0603 | – | – | 0.105 | – | 0.0536 | 0.062 | 0.0663 | – | 0.106 | – | – | – | – | 0.0704 | – | – | 0.0759
S121R | 0.092 | 0.132 | 0.0682 | – | – | 0.0875 | 0.0644 | 0.0583 | 0.0599 | 0.0723 | 0.061 | 0.117 | 0.0668 | 0.0362 | 0.067 | 0.0836 | 0.0847 | 0.0597 | – | 0.0446
